# Assay results as given in article PMC12820563, “FoxP3 forms a head-to-head dimer in vivo and stabilizes its multimerization on adjacent microsatellites”.
# Some of the results follow.
# Target: T1, MBP-FoxP1dN (Mus musculus, UniProt P58462 326-579)
# T1 sequence: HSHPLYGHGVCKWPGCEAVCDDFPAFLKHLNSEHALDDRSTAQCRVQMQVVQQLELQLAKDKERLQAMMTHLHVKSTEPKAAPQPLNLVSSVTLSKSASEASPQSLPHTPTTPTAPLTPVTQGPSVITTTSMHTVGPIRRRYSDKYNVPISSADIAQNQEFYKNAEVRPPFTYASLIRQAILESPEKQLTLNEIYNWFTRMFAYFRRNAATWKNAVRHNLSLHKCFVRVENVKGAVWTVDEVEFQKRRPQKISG
# Assay: PD-seq (MBP pull-down with sequencing); 20 mM Tris-HCl pH 7.5, 100 mM NaCl, 1.5 mM MgCl2, 0.4 uM protein, 0.1 uM dsDNA library, 30 min, room temperature, amylose pull-down; high values mean tight binding
# Details: protein: recombinant; tags: His6-MBP; chain copies: 2; dsDNA, one strand shown
# Outline: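 Binding is the reads-per-million enrichment of pull-down relative to input, pooled across replicates. For this, 0.4 µM His6-MBP-tagged mouse FoxP3 or FoxP1 fragment lacking the N-terminus, made in E. coli, was incubated with 0.1 µM Klenow-filled double-stranded degenerate DNA library for 30 min at room temperature in Tris pH 7.5 buffer with NaCl and MgCl2. Complexes bound to amylose resin were washed three times before proteinase K released the DNA for PCR barcoding and Illumina sequencing.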
row,Sequence,binding signal
1,GATGATTGTTCTCCCAGCTGATGAATTTTCATCGTCGAGTAAACAAATTTTCCTAATCTTTCTGTTCAAGCGCCATCTAC,0.816 RPM ratio (pull-down/input)
2,GATGATTGTTCTCCCAGCTGATGAATTCAACCGGTCGAGTAAACAAATTTTCCTAATCTTTCTGTTCAAGCGCCATCTAC,0.776 RPM ratio (pull-down/input)
3,GATGATTGTTCTCCCAGCTGATGAATTTGTTTTTTCGAGTAAACAAATTTTCCTAATCTTTCTGTTCAAGCGCCATCTAC,2.09 RPM ratio (pull-down/input)
4,GATGATTGTTCTCCCAGCTGATGAATTAGGTAGTTCGAGTAAACAAATTTTCCTAATCTTTCTGTTCAAGCGCCATCTAC,0.881 RPM ratio (pull-down/input)
5,GATGATTGTTCTCCCAGCTGATGAATTATATTAATCGAGTAAACAAATTTTCCTAATCTTTCTGTTCAAGCGCCATCTAC,1.1 RPM ratio (pull-down/input)
6,GATGATTGTTCTCCCAGCTGATGAATTACACCCTTCGAGTAAACAAATTTTCCTAATCTTTCTGTTCAAGCGCCATCTAC,1.15 RPM ratio (pull-down/input)
7,GATGATTGTTCTCCCAGCTGATGAATTCAAACAATCGAGTAAACAAATTTTCCTAATCTTTCTGTTCAAGCGCCATCTAC,1.81 RPM ratio (pull-down/input)
8,GATGATTGTTCTCCCAGCTGATGAATTCGATAAGTCGAGTAAACAAATTTTCCTAATCTTTCTGTTCAAGCGCCATCTAC,0.86 RPM ratio (pull-down/input)
9,GATGATTGTTCTCCCAGCTGATGAATTTGACGTTTCGAGTAAACAAATTTTCCTAATCTTTCTGTTCAAGCGCCATCTAC,0.918 RPM ratio (pull-down/input)
10,GATGATTGTTCTCCCAGCTGATGAATTTTCCCGCTCGAGTAAACAAATTTTCCTAATCTTTCTGTTCAAGCGCCATCTAC,0.808 RPM ratio (pull-down/input)
11,GATGATTGTTCTCCCAGCTGATGAATTTACATCGTCGAGTAAACAAATTTTCCTAATCTTTCTGTTCAAGCGCCATCTAC,1.33 RPM ratio (pull-down/input)
12,GATGATTGTTCTCCCAGCTGATGAATTCGAACACTCGAGTAAACAAATTTTCCTAATCTTTCTGTTCAAGCGCCATCTAC,0.896 RPM ratio (pull-down/input)
13,GATGATTGTTCTCCCAGCTGATGAATTCTCCCTGTCGAGTAAACAAATTTTCCTAATCTTTCTGTTCAAGCGCCATCTAC,0.852 RPM ratio (pull-down/input)
14,GATGATTGTTCTCCCAGCTGATGAATTTCATCCTTCGAGTAAACAAATTTTCCTAATCTTTCTGTTCAAGCGCCATCTAC,0.781 RPM ratio (pull-down/input)
15,GATGATTGTTCTCCCAGCTGATGAATTAGCGCAATCGAGTAAACAAATTTTCCTAATCTTTCTGTTCAAGCGCCATCTAC,1.31 RPM ratio (pull-down/input)
16,GATGATTGTTCTCCCAGCTGATGAATTGCCAACGTCGAGTAAACAAATTTTCCTAATCTTTCTGTTCAAGCGCCATCTAC,0.91 RPM ratio (pull-down/input)
17,GATGATTGTTCTCCCAGCTGATGAATTAAGAGAGTCGAGTAAACAAATTTTCCTAATCTTTCTGTTCAAGCGCCATCTAC,0.756 RPM ratio (pull-down/input)
18,GATGATTGTTCTCCCAGCTGATGAATTGGATTAGTCGAGTAAACAAATTTTCCTAATCTTTCTGTTCAAGCGCCATCTAC,0.807 RPM ratio (pull-down/input)
19,GATGATTGTTCTCCCAGCTGATGAATTGCCCGTATCGAGTAAACAAATTTTCCTAATCTTTCTGTTCAAGCGCCATCTAC,0.945 RPM ratio (pull-down/input)
20,GATGATTGTTCTCCCAGCTGATGAATTTAAGGTTTCGAGTAAACAAATTTTCCTAATCTTTCTGTTCAAGCGCCATCTAC,0.852 RPM ratio (pull-down/input)
21,GATGATTGTTCTCCCAGCTGATGAATTCACGCGGTCGAGTAAACAAATTTTCCTAATCTTTCTGTTCAAGCGCCATCTAC,0.873 RPM ratio (pull-down/input)

row,Sequence,binding signal
1,GATGATTGTTCTCCCAGCTGATGAATTACTCGTGTCGAGTAAACAAATTTTCCTAATCTTTCTGTTCAAGCGCCATCTAC,0.98 RPM ratio (pull-down/input)
2,GATGATTGTTCTCCCAGCTGATGAATTCTCTAGATCGAGTAAACAAATTTTCCTAATCTTTCTGTTCAAGCGCCATCTAC,0.938 RPM ratio (pull-down/input)
3,GATGATTGTTCTCCCAGCTGATGAATTTTACCGTTCGAGTAAACAAATTTTCCTAATCTTTCTGTTCAAGCGCCATCTAC,0.867 RPM ratio (pull-down/input)
4,GATGATTGTTCTCCCAGCTGATGAATTAGGTTCATCGAGTAAACAAATTTTCCTAATCTTTCTGTTCAAGCGCCATCTAC,0.921 RPM ratio (pull-down/input)
5,GATGATTGTTCTCCCAGCTGATGAATTACCAATGTCGAGTAAACAAATTTTCCTAATCTTTCTGTTCAAGCGCCATCTAC,1.06 RPM ratio (pull-down/input)
6,GATGATTGTTCTCCCAGCTGATGAATTGGGCTACTCGAGTAAACAAATTTTCCTAATCTTTCTGTTCAAGCGCCATCTAC,0.851 RPM ratio (pull-down/input)
7,GATGATTGTTCTCCCAGCTGATGAATTCCCCATATCGAGTAAACAAATTTTCCTAATCTTTCTGTTCAAGCGCCATCTAC,0.898 RPM ratio (pull-down/input)
8,GATGATTGTTCTCCCAGCTGATGAATTCCGAAATTCGAGTAAACAAATTTTCCTAATCTTTCTGTTCAAGCGCCATCTAC,0.838 RPM ratio (pull-down/input)
9,GATGATTGTTCTCCCAGCTGATGAATTTGTCTCGTCGAGTAAACAAATTTTCCTAATCTTTCTGTTCAAGCGCCATCTAC,0.937 RPM ratio (pull-down/input)
10,GATGATTGTTCTCCCAGCTGATGAATTAGTACAATCGAGTAAACAAATTTTCCTAATCTTTCTGTTCAAGCGCCATCTAC,1.42 RPM ratio (pull-down/input)
11,GATGATTGTTCTCCCAGCTGATGAATTGGTTTCTTCGAGTAAACAAATTTTCCTAATCTTTCTGTTCAAGCGCCATCTAC,1.03 RPM ratio (pull-down/input)
12,GATGATTGTTCTCCCAGCTGATGAATTTCCAAGCTCGAGTAAACAAATTTTCCTAATCTTTCTGTTCAAGCGCCATCTAC,0.813 RPM ratio (pull-down/input)
13,GATGATTGTTCTCCCAGCTGATGAATTAGATCGATCGAGTAAACAAATTTTCCTAATCTTTCTGTTCAAGCGCCATCTAC,0.916 RPM ratio (pull-down/input)
14,GATGATTGTTCTCCCAGCTGATGAATTAAAGGTCTCGAGTAAACAAATTTTCCTAATCTTTCTGTTCAAGCGCCATCTAC,0.774 RPM ratio (pull-down/input)
15,GATGATTGTTCTCCCAGCTGATGAATTCGTTTCTTCGAGTAAACAAATTTTCCTAATCTTTCTGTTCAAGCGCCATCTAC,0.97 RPM ratio (pull-down/input)
16,GATGATTGTTCTCCCAGCTGATGAATTTATTGGATCGAGTAAACAAATTTTCCTAATCTTTCTGTTCAAGCGCCATCTAC,0.91 RPM ratio (pull-down/input)
17,GATGATTGTTCTCCCAGCTGATGAATTCACGCATTCGAGTAAACAAATTTTCCTAATCTTTCTGTTCAAGCGCCATCTAC,1.3 RPM ratio (pull-down/input)
18,GATGATTGTTCTCCCAGCTGATGAATTCCTACCGTCGAGTAAACAAATTTTCCTAATCTTTCTGTTCAAGCGCCATCTAC,0.731 RPM ratio (pull-down/input)
19,GATGATTGTTCTCCCAGCTGATGAATTAATCCCCTCGAGTAAACAAATTTTCCTAATCTTTCTGTTCAAGCGCCATCTAC,0.94 RPM ratio (pull-down/input)
20,GATGATTGTTCTCCCAGCTGATGAATTATTCTGGTCGAGTAAACAAATTTTCCTAATCTTTCTGTTCAAGCGCCATCTAC,1.04 RPM ratio (pull-down/input)
21,GATGATTGTTCTCCCAGCTGATGAATTAGAGTACTCGAGTAAACAAATTTTCCTAATCTTTCTGTTCAAGCGCCATCTAC,0.976 RPM ratio (pull-down/input)

row,Sequence,binding signal
1,GATGATTGTTCTCCCAGCTGATGAATTCGGAGTCTCGAGTAAACAAATTTTCCTAATCTTTCTGTTCAAGCGCCATCTAC,0.77 RPM ratio (pull-down/input)
2,GATGATTGTTCTCCCAGCTGATGAATTTATTTGTTCGAGTAAACAAATTTTCCTAATCTTTCTGTTCAAGCGCCATCTAC,2.15 RPM ratio (pull-down/input)
3,GATGATTGTTCTCCCAGCTGATGAATTTTCAGGATCGAGTAAACAAATTTTCCTAATCTTTCTGTTCAAGCGCCATCTAC,0.888 RPM ratio (pull-down/input)
4,GATGATTGTTCTCCCAGCTGATGAATTAATCTCATCGAGTAAACAAATTTTCCTAATCTTTCTGTTCAAGCGCCATCTAC,0.98 RPM ratio (pull-down/input)
5,GATGATTGTTCTCCCAGCTGATGAATTTGTTTCGTCGAGTAAACAAATTTTCCTAATCTTTCTGTTCAAGCGCCATCTAC,1.3 RPM ratio (pull-down/input)
6,GATGATTGTTCTCCCAGCTGATGAATTCTTAGCCTCGAGTAAACAAATTTTCCTAATCTTTCTGTTCAAGCGCCATCTAC,0.914 RPM ratio (pull-down/input)
7,GATGATTGTTCTCCCAGCTGATGAATTTATGTGATCGAGTAAACAAATTTTCCTAATCTTTCTGTTCAAGCGCCATCTAC,1.21 RPM ratio (pull-down/input)
8,GATGATTGTTCTCCCAGCTGATGAATTCTGACTCTCGAGTAAACAAATTTTCCTAATCTTTCTGTTCAAGCGCCATCTAC,0.804 RPM ratio (pull-down/input)
9,GATGATTGTTCTCCCAGCTGATGAATTCCTTTCGTCGAGTAAACAAATTTTCCTAATCTTTCTGTTCAAGCGCCATCTAC,0.882 RPM ratio (pull-down/input)
10,GATGATTGTTCTCCCAGCTGATGAATTAGTGACGTCGAGTAAACAAATTTTCCTAATCTTTCTGTTCAAGCGCCATCTAC,1 RPM ratio (pull-down/input)
11,GATGATTGTTCTCCCAGCTGATGAATTGTGCGCGTCGAGTAAACAAATTTTCCTAATCTTTCTGTTCAAGCGCCATCTAC,1.12 RPM ratio (pull-down/input)
12,GATGATTGTTCTCCCAGCTGATGAATTAACCTATTCGAGTAAACAAATTTTCCTAATCTTTCTGTTCAAGCGCCATCTAC,0.942 RPM ratio (pull-down/input)
13,GATGATTGTTCTCCCAGCTGATGAATTCCGAGCGTCGAGTAAACAAATTTTCCTAATCTTTCTGTTCAAGCGCCATCTAC,0.803 RPM ratio (pull-down/input)
14,GATGATTGTTCTCCCAGCTGATGAATTGCATAAGTCGAGTAAACAAATTTTCCTAATCTTTCTGTTCAAGCGCCATCTAC,1.22 RPM ratio (pull-down/input)
15,GATGATTGTTCTCCCAGCTGATGAATTGTTACAATCGAGTAAACAAATTTTCCTAATCTTTCTGTTCAAGCGCCATCTAC,1.61 RPM ratio (pull-down/input)
16,GATGATTGTTCTCCCAGCTGATGAATTGAATTTCTCGAGTAAACAAATTTTCCTAATCTTTCTGTTCAAGCGCCATCTAC,0.851 RPM ratio (pull-down/input)
17,GATGATTGTTCTCCCAGCTGATGAATTGAAGCATTCGAGTAAACAAATTTTCCTAATCTTTCTGTTCAAGCGCCATCTAC,1.01 RPM ratio (pull-down/input)
18,GATGATTGTTCTCCCAGCTGATGAATTGCACAAGTCGAGTAAACAAATTTTCCTAATCTTTCTGTTCAAGCGCCATCTAC,1.13 RPM ratio (pull-down/input)
19,GATGATTGTTCTCCCAGCTGATGAATTAGAGGATTCGAGTAAACAAATTTTCCTAATCTTTCTGTTCAAGCGCCATCTAC,0.94 RPM ratio (pull-down/input)
20,GATGATTGTTCTCCCAGCTGATGAATTAGGCCCCTCGAGTAAACAAATTTTCCTAATCTTTCTGTTCAAGCGCCATCTAC,0.821 RPM ratio (pull-down/input)
21,GATGATTGTTCTCCCAGCTGATGAATTCCATCCATCGAGTAAACAAATTTTCCTAATCTTTCTGTTCAAGCGCCATCTAC,0.866 RPM ratio (pull-down/input)
